Data published in PubChem BioAssay AID662 (National Center for Advancing Translational Sciences (NCATS), 2007).
In all, about 71,000 compounds went through this assay and about 1,800 (2.5%) were called active. The shares of active, inactive and inconclusive entries below differ from those in the screen. Calls come from the whole dose curve; as a rule, active = well fitted activation curve with a large enough effect in the signal ratio, with a control signal flat (not every such curve was filed as active); inconclusive = small, poorly fitted or top-dose-only effect, or effect the other way, or a change in a side signal; inactive = flat fitted curve, though single readings scatter; the % refers to the signal ratio. Potencies beside an inconclusive call are fits to weak or partial responses and may not hold up.

Assay: Cell signaling CRE-BLA (Fsk stim); for activity change, negative = inhibition: % of control where 0% means no effect
Details: CHO CRE-bla reporter (cAMP response element driving beta-lactamase), forskolin EC10, beta-lactamase ratio; activity change, negative = inhibition: at 38.2 µM (top of the series) unless noted
Procedure, shortened: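 Forskolin analogue NKH 477 at EC10 stimulated CRE-driven beta-lactamase in CHO cells alongside compound dilution series. Beta-lactamase was measured with CCF4, excitation 405 nm, emission ratio 460/530 nm.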
Potency is the fitted concentration of half-maximal effect; tags give direction and shape of the fitted curve.

Row | SMILES | Potency | activity change, negative = inhibition
1 | O=C(CSc1nc2[nH]ncc2c(=O)n1-c1ccccc1)N1CCCc2ccccc21 | inconclusive: 3.98 µM [rising, partial curve] | 
2 | Cc1ccc(NC(=O)CN(C)c2ccc(S(=O)(=O)N3CCN(C)CC3)cn2)cc1 |  | inconclusive: 4.86%
3 | COc1ccc(-c2noc(CSc3nnc(CCc4ccccc4)n3-c3ccccc3)n2)cc1OC | inconclusive: 20 µM [rising, single point] | 
4 | CCCN1CC=C2C(C#N)=C(N)C(C#N)(C#N)C(c3cccc(OC)c3OC)C2C1 (configuration not stated) | inconclusive: 10 µM [rising, single point] | 
5 | Fc1ccc(C(OCCCc2cnc[nH]2)c2ccc(F)cc2)cc1 | inconclusive: 12.6 µM [rising, partial curve] | 
6 | O=c1c(-c2ccc(F)c(F)c2)nc2cncnc2n1Cc1ccccc1 |  | inconclusive: 27.7%
7 | COC(=O)CCC(=O)Oc1ccc(OC(=O)CCC(=O)OC)cc1 |  | inconclusive: -23.8%
8 | CCS(=O)(=O)N1CCC(C(=O)NCCCOC)CC1 |  | inactive: 1.91%
9 | CC1=C(C(=O)OC2CCCC2)C(c2ccc(C)o2)C2=C(CC(c3cccs3)CC2=O)N1 (configuration not stated) |  | inactive: -4.01%
10 | NC(=O)c1ccc(-c2ccc(Br)cc2)o1 | inconclusive: 10 µM [rising, partial curve] | 
11 | Cc1ccc(C)c(NC(=O)C2CC(O)CN2C(=O)OCc2ccccc2)c1 (configuration not stated) |  | inconclusive: -23.6% [at 7.6 µM]
12 | CN1C(=O)c2ccccc2N(C)C1c1ccc2c(c1)OCO2 (configuration not stated) |  | inactive: 13.5%
13 | COCCCn1c(=O)c2ccccc2c2ccccc2c1=O |  | inconclusive: 22.7%
14 | Cc1cc(C(=O)CSc2nnc(C3COc4ccccc4O3)n2C)c(C)n1-c1ccc(F)cc1 (configuration not stated) |  | inactive: 3.23%
15 | Cc1nc2sc3c(c2c2nnc(SCC(=O)NCc4ccco4)n12)CCCC3 | active: 12.6 µM | 
16 | Clc1ccc2c(c1)N=C(N1CCNCC1)c1ccccc1N2 |  | inconclusive: -11.9%
17 | CCOc1nc(-c2ccc(OC)cc2)ccc1-c1noc(-c2cc(OC)c(OC)c(OC)c2)n1 | inconclusive: 12.6 µM [rising, partial curve] | 
18 | Cc1nc2ccc(S(=O)(=O)NC(CC(C)C)C(=O)O)cc2s1 (configuration not stated) |  | inconclusive: 1.37%
19 | CCCCSc1nnc2nc(C)cc(C)n12 |  | inactive: 8.72%
20 | COc1ccc(-n2nc(C(=O)Nc3ccc4c(c3)OCO4)c3ccccc3c2=O)cc1 | inconclusive: 0.126 µM [rising, partial curve] | 
21 | CC1=C(C(=O)OCCOC(C)C)C(c2cccnc2)C2=C(CCCC2=O)N1 (configuration not stated) |  | inconclusive: 24.4%

Row | SMILES | Potency | activity change, negative = inhibition
22 | Cc1cnc(C(=O)Nc2ccc(N3CCOCC3)cc2)cn1 |  | inconclusive: 1.02%
23 | COc1ccc2c(c1)CCC1C2CC[C@]2(C)[C@H](NCCCCCCN3C(=O)C=CC3=O)CC[C@@H]12 (some centres not stated) |  | inactive: 0.233%
24 | CCN(c1cccc(C(F)(F)F)c1)S(=O)(=O)c1ccc2c(c1)CCN2C(C)=O |  | inconclusive: 12.5%
25 | N#Cc1ccc(CN2CC[C@@]3(CCCN(S(=O)(=O)c4ccccc4)C3)C2)cc1 |  | inactive: -9.64%
26 | CCC(=O)c1ccc(N2CCN(C(=O)COc3ccc(F)cc3)CC2)c(F)c1 |  | inactive: -0.341% [at 7.6 µM]
27 | C[C@H](Br)C(=O)c1ccc2cc(Br)c3ccccc3c2c1 |  | inactive: 9.98% [at 7.6 µM]
28 | COc1ccc(-c2cc(-c3cccs3)c(C#N)c(SCC(=O)NCc3ccco3)n2)cc1 | inconclusive: 3.98 µM [rising, partial curve] | 
29 | Cc1cc(NS(=O)(=O)c2ccccc2)n(-c2ccccc2)n1 |  | inconclusive: -0.911%
30 | CCOC(=O)CSc1nnc(CSc2nc(C)cc(C)n2)n1Cc1ccco1 | inconclusive: 3.16 µM [falling, single point] | 
31 | Cc1cc(C)n(-c2nc(-c3cccc(Cl)c3)cs2)n1 | inconclusive: 2.51 µM [rising, partial curve] | 
32 | COc1ccc(NC(=O)c2cccc(Cn3cc(Br)cn3)c2)cn1 | inconclusive: 1 µM [rising, partial curve] | 
33 | C[C@H](NCCC(c1ccccc1)c1ccccc1)c1ccccc1 | inconclusive: 5.01 µM [falling, full curve, poor fit] | 
34 | COC(=O)c1[nH]c2cccc(OC)c2c1NC(=O)CCN1CCN(c2cccc(Cl)c2)CC1 |  | inactive: -10.9%
35 | Cn1c(CNC(=O)Nc2ccccc2Cl)nnc1SCc1ccccc1 |  | inactive: -18.7%
36 | COC(=O)CSc1nc(N)c(C#N)c(C(C)C)c1C#N | inconclusive: 10 µM [rising, partial curve, poor fit] | 
37 | CCOC(=O)c1c2n(c3c(NCc4ccccc4)ncnc13)CCCC2 | active: 12.6 µM | 
38 | c1cc2c(cc1-c1cnc3n1CCC3)OCCO2 |  | inconclusive: -29.4%
39 | CCCn1c(=O)c2[nH]c(-c3ccccc3)nc2n(CCC)c1=O | active: 0.2 µM | 
40 | CCCCC[C@H](CC(=O)NO)C(=O)N[C@@H](C(=O)N1CCC[C@H]1CO)C(C)C |  | inconclusive: 23.1%
41 | Cc1nn(-c2ccccc2)c2sc(C(=O)N3CCCCC3)cc12 | active: 3.16 µM | 
42 | CCOC(=O)c1ccc(NC(=O)CC2C(=O)N(c3ccc(F)cc3)C(=O)N2CCCOC)cc1 (configuration not stated) |  | inconclusive: -19.1%
